Measured values published in patent US20240382610A1 (TALLAC THERAPEUTICS, published 2024).

T1: Human nectin-4 ECD-6His (TNT-175) (human, UniProt Q96NY8 32-349)
T1 construct: the entry holds the extracellular domain with the C-terminal 6His tag
T1 sequence: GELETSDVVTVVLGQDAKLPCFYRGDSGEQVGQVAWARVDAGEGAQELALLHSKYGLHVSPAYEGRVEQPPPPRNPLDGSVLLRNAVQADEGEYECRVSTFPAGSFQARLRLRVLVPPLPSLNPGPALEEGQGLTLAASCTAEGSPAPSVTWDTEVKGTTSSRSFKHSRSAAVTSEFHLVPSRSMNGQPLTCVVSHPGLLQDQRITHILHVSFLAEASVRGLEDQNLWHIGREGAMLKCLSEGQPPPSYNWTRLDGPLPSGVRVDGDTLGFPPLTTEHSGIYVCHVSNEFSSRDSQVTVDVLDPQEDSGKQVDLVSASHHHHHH

T2: Mouse nectin-4 ECD-6His (TNT-250) (mouse, UniProt Q8R007 31-347)
T2 construct: entry includes the 6His tag; also called mouse nectin-4-LCD
T2 sequence: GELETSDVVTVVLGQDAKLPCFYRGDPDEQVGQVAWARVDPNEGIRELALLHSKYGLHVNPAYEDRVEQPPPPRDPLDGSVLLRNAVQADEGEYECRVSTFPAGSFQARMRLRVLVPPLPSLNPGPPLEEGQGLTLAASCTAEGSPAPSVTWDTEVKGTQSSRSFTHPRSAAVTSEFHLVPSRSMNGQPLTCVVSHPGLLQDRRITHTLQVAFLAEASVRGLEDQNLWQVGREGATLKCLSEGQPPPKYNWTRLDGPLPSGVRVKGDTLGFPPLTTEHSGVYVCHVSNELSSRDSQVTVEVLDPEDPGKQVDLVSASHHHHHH

T3: Human nectin-4-IgV-6His (TNT-252) (human, UniProt Q96NY8 32-147)
T3 construct: entry includes the 6His tag
T3 sequence: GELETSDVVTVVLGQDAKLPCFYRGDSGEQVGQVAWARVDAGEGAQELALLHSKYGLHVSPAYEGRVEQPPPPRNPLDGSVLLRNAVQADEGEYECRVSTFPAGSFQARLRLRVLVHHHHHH

T4: Cyno nectin-4 ECD-6His (TNT-255) (cynomolgus, UniProt Q96NY8 32-349 (human entry))
T4 construct: entry includes the 6His tag
T4 chain: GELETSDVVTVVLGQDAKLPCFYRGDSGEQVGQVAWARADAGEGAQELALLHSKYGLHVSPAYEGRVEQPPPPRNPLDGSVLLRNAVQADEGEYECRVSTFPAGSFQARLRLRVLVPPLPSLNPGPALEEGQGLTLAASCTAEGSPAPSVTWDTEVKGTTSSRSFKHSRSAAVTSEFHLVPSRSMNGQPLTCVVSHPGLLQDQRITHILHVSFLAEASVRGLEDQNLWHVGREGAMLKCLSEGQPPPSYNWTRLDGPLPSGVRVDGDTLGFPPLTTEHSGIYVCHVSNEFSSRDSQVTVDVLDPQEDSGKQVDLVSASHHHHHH

B1: TNT-204 (antibody, human IgG1, kappa)
heavy: EVQLLESGGGVVQPGRSLRLSCAASGFTFSSYGMHWVRQAPGKGLEWVAVISYDGSNKYYADSVKGRFTISRDNSKNTLYLQMNSLRAEDTAVYYCAKSSYYDYVWGSYRYTDAFDIWGQGTMVTVSSASTKGPSVFPLAPSSKSTSGGTAALGCLVKDYFPEPVTVSWNSGALTSGVHTFPAVLQSSGLYSLSSVVTVPSSSLGTQTYICNVNHKPSNTKVDKKV[letters of human IgG1 Fc and a few adjoining residues left out]
light: EIVLTQSPATLSLSPGERATLSCRASQSVSSSYLAWYQQKPGQAPRLLIYGASSRATGIPDRFSGSGSGTDFTLTISRLEPEDFAVYYCQQYNNWWTFGQGTKVDIKRTVAAPSVFIFPPSDEQLKSGTASVVCLLNNFYPREAKVQWKVDNALQSGNSQESVTEQDSKDSTYSLSSTLTLSKADYEKHKVYACEVTHQGLSSPVTKSFNRGEC
B2: TNT-206 (antibody, human IgG1, kappa)
heavy: QVQLQESGPGLVKPSGTLSLTCTVSGGSISSGGYYWAWIRQPPGKGLEWIGSIYYTGSTYYNPSLKSRVTIYVDTSKNQFSLKLSSVTAADTAVYYCARDPFPEPPDAFDIWGQGTMVTVSSASTKGPSVFPLAPSSKSTSGGTAALGCLVKDYFPEPVTVSWNSGALTSGVHTFPAVLQSSGLYSLSSVVTVPSSSLGTQTYICNVNHKPSNTKVDKKV[letters of human IgG1 Fc and a few adjoining residues left out]
light: EIVLTQSPATLSVSPGERATLS[letters of about 80 residues left out][letters of about 120 residues left out]
B3: TNT-209 (antibody, human IgG1, kappa)
heavy: EVQLVESGGGLVQPGGSLRLSCAASGFTFSDYYMSWIRQAPGKGLEWVSGISWNSGSIGYADSVKGRFTISRDNSKNTLYLQMNSLRAEDTAVYYCASSGSWYLPLDYWGQGTLVTVSSASTKGPSVFPLAPSSKSTSGGTAALGCLVKDYFPEPVTVSWNSGALTSGVHTFPAVLQSSGLYSLSSVVTVPSSSLGTQTYICNVNHKPSNTKVDKKV[letters of human IgG1 Fc and a few adjoining residues left out]
light: DIQMTQSPSSLSASVGDRVTITCQASQDISNYLNWYQQKPGKVPKLLIYAASTLQSGVPSRFSGSGSGTDFTLTISSLQPEDFATYYCQQSYSTPLTFGGGTKVEIKRTVAAPSVFIFPPSDEQLKSGTASVVCLLNNFYPREAKVQWKVDNALQSGNSQESVTEQDSKDSTYSLSSTLTLSKADYEKHKVYACEVTHQGLSSPVTKSFNRGEC
B4: TNT-210 (antibody, human IgG1, kappa)
heavy: EVQLVQSGGGVVQPGRSLRLSCAASGFTFSSYAMHWVRQAPGKGLEWVAVISYDGSNKYYADSVKGRFTISRDNSKNTLYLQMNSLRAEDTAVYYCARATLQLWLPLFDYWGQGTLVTVSSASTKGPSVFPLAPSSKSTSGGTAALGCLVKDYFPEPVTVSWNSGALTSGVHTFPAVLQSSGLYSLSSVVTVPSSSLGTQTYICNVNHKPSNTKVDKKV[letters of human IgG1 Fc and a few adjoining residues left out]
light: [letters of about 200 residues left out]

What was measured:
[1] = target: T1, Human nectin-4 ECD-6His (TNT-175); assay: SPR Biacore 8K, mAb on protein A
Method: (§1) The running buffer was 10 mM HEPES, pH 7.4, 150 mM NaCl, 3 mM EDTA, 0.05% (v/v) Surfactant P20 (HBS-EP+). […] The nectin-4 analytes were injected in either single-cycle kinetics or multi-cycle kinetics mode at nominal starting concentrations of 300 nM or 900 nM with 3-fold serial dilutions. Association times were monitored for 120 s, and dissociation times were monitored 1800 s at 30 μL/min flow rate. The surfaces were regenerated with 10 mM glycine at pH1.7 or 75 mM phosphoric acid at pH1.6 for two pulses of 15 s at 30 μL/min flow rate.
(§2) The data were processed and analyzed with Biacore 8K Evaluation Software Version 3.0.12.15655 (Cytiva, Global Life Sciences Solutions USA LLC, Marlborough, MA). […] The responses from the nearest buffer blank injection were then subtracted from the reference subtracted data (2-1) to yield double-referenced data. These double-reference data were fit to a simple 1:1 Langmuir binding model with mass transport to determine the apparent association (ka) and dissociation rate constants (kd). The apparent equilibrium dissociation constant or affinity constant was then calculated based on their ratio as (KD=kd/ka).

[2] = target: T2, Mouse nectin-4 ECD-6His (TNT-250); assay: SPR Biacore 8K, mAb on protein A
Method: as §1, §2

[3] = target: T3, Human nectin-4-IgV-6His (TNT-252); assay: SPR Biacore 8K, mAb on protein A
Method: as §1, §2

[4] = target: T4, Cyno nectin-4 ECD-6His (TNT-255); assay: SPR Biacore 8K, mAb on protein A
Method: as §1, §2

[5] = target: T1, Human nectin-4 ECD-6His (TNT-175); assay: SPR Biacore 8K
Method: (§3) Further testing of select nectin-4 antibodies to human, mouse and cyno nectin-4. Additional assessment of the nectin-4 antibodies was performed to measure binding to human, mouse, and cynomolgus nectin-4. Biacore 8K (Cytiva, Marlborough, MA) was used to further characterize binding of four of the nectin-4 monoclonal antibodies.
(§4) All experiments were performed at 25° C. temperature and in HBS-EP+ run buffer (10 mM HEPES, pH 7.4, 150 mM NaCl, 3 mM EDTA, 0.05% Tween-20). The antibodies were captured or immobilized on a Biacore chip either through amine-coupling method on a CM5 or captured by ProteinA chip or captured by anti-mouse polyclonal antibody or anti-human polyclonal antibody. […] The data were processed and analyzed in Biacore Insight Evaluation Software using double-reference subtraction of the data and then fitted to a simple Langmuir binding model using global kinetic rate constants for association (Kₐ), dissociation (Kd), and Rₘₐₓ values per sample. Fit quality was determined by inspection of the residuals and of statistical T values and the equilibrium dissociation (or affinity) constant was deduced by the ratio of the kinetic rate constants. KD=Kd/Kₐ.

[6] = target: T2, Mouse nectin-4 ECD-6His (TNT-250); assay: SPR Biacore 8K
Method: as §3, §4

[7] = target: T3, Human nectin-4-IgV-6His (TNT-252); assay: SPR Biacore 8K
Method: as §3, §4

[8] = target: T4, Cyno nectin-4 ECD-6His (TNT-255); assay: SPR Biacore 8K
Method: as §3, §4

Kd [1]	Kd [2]	Kd [3]	Kd [4]	Kd [5]	Kd [6]	Kd [7]	Kd [8]	Binder
2.08 nM	4.34 nM	6.82 nM	10.2 nM					B1
17.7 nM	18.7 nM	18.7 nM	23.5 nM					B2
17.5 nM	331 nM	28.9 nM	55 nM					B3
13.3 nM	15 nM	17.5 nM	36.7 nM	12 nM	12 nM	17 nM	36 nM	B4
